# According to the supplement of paper PMC3334620:
# Over roughly 33,000 sequences, “E-score (-0.5 to 0.5)” has its median near -0.053; the highest 2% begin near 0.37. The list shows a part of the results.
# Biological target: Hap1 (UniProt P0CE41)
# Experiment: PBM E-score (8-mer binding enrichment) (E-score (-0.5 to 0.5)); higher = stronger / more preferred TF binding; most listed sequences are background and not binding sites
# Settings: protein concentration: 200 nM; construct: GST-DNA-binding domain
# Summary of the method: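 Full-length yeast transcription factors or their DNA-binding domains, GST-tagged and expressed with PURExpress, were applied at about 100-200 nM to universal all-10-mer Agilent arrays. These arrays had been made double-stranded by primer extension on fresh or once-stripped slides. Detection used fluorescent anti-GST, normalisation used masliner, and E-scores for ungapped eight-base words pooled with reverse complements came from the Universal PBM Analysis Suite.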
# UniProt P0CE41, sequence (P0CE41 whole entry): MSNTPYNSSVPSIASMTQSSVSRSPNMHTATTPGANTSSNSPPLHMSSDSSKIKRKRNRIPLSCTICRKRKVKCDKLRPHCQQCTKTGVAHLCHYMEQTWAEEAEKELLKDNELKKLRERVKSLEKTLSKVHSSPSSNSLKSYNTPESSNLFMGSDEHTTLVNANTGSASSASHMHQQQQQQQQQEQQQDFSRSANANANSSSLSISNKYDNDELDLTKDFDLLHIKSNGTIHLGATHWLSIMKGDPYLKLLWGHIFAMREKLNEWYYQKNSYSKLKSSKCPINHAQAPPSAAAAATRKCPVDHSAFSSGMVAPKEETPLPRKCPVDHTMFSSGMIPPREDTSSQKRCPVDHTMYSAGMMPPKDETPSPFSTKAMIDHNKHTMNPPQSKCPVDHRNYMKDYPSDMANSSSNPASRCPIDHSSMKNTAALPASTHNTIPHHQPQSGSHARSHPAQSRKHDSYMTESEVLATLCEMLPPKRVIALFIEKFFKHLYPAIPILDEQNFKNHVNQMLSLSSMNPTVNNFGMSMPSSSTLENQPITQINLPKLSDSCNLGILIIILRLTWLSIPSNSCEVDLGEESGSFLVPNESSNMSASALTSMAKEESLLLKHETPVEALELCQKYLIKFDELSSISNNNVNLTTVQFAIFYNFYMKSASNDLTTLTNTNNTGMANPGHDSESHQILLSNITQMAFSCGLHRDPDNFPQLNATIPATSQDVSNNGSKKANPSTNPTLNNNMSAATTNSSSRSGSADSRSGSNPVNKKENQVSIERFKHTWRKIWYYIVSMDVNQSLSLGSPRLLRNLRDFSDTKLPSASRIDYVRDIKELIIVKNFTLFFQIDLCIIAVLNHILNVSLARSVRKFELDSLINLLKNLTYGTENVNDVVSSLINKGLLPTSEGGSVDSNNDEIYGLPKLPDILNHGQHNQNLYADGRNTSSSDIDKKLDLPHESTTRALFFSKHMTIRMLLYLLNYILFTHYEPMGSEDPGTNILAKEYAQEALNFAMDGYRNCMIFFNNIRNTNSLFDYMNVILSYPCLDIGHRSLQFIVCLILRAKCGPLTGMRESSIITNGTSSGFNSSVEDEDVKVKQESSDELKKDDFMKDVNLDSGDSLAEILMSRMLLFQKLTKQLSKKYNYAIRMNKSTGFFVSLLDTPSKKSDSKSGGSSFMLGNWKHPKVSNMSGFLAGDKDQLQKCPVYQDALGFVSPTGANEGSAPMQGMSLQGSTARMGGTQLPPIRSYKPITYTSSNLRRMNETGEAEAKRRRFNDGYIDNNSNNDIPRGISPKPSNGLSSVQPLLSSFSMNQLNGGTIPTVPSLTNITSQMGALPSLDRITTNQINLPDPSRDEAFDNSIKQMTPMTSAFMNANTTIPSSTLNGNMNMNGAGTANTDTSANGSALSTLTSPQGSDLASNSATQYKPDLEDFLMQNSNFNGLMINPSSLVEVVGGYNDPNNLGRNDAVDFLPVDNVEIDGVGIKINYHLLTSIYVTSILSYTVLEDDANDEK
row,Sequence,PBM E-score
1,ATCAGTGG,-0.192
2,ACATTGGG,-0.162
3,ATTCTACA,-0.0706
4,AAATTGGG,-0.0238
5,AGAGGGCC,-0.16
6,TACTTAGA,-0.362
7,ACCAGGCA,-0.154
8,CTAACGCC,0.306
9,AATATGGC,-0.0273
10,AGTGCACA,-0.00991
11,CAAAATGC,-0.108
12,AGCCTGTC,-0.106
13,AGGGTTAT,-0.22
14,CCATGAGA,-0.0127
15,GCTATGTA,-0.237
16,GAAACCAA,0.12
17,AAGCGCGC,0.188
18,ACGTGCTG,-0.155
19,TCCTAGAA,0.00753
20,ATAGGGCC,0.0603
21,TCCGGGCA,0.324
22,CCGAGTTC,0.312
23,CCTCGATC,-0.148
24,CGATACGC,0.225
25,CTGTGCCC,-0.138

row,Sequence,PBM E-score
1,AGTGTTCA,0.069
2,GAGGAGAC,-0.0943
3,ACCCGTCC,0.105
4,CCTTTAGC,-0.0456
5,CATACCGC,0.187
6,AGCTCGTG,0.0127
7,GCCTCCAC,-0.206
8,ACCGATCC,0.3
9,CTGCACGA,-0.316
10,AAACGTTT,0.185
11,AATGGGGA,-0.0712
12,GTCACCAA,-0.302
13,TGGGGGAA,-0.216
14,CCACGGTA,0.146
15,ACGCGCTG,-0.126
16,GACACAAC,-0.0229
17,AAACAGTA,-0.152
18,GCATATGA,-0.0509
19,AAGAGTTA,-0.135
20,AATGGGCG,-0.0792
21,CGAGCCTA,-0.0101
22,TGGTGTAA,-0.205
23,CACTCCCA,-0.168
24,AAACTACG,0.118
25,AACTAAAA,0.0312

row,Sequence,PBM E-score
1,AACGTATA,-0.149
2,CGCATGAG,-0.262
3,ATTACAAT,-0.108
4,ATTCGTCG,0.0882
5,CGTTCGAA,-0.00961
6,AATGCAGA,-0.107
7,CCCCTCGC,-0.0968
8,GGACTACA,0.0421
9,GCTGATAA,0.129
10,CGGAAAAC,0.346
11,CATAGATC,-0.154
12,GAGCGGTA,0.0947
13,CTTCGTCC,0.0401
14,ACAAAAGA,-0.0907
15,ATGGGTAC,-0.297
16,TAAAGCGA,0.129
17,AACCATCT,-0.109
18,AGTTTAGG,-0.273
19,CACGATGC,-0.181
20,TCTTGTCA,-0.139
21,CGATAATA,0.306
22,TAAATTTA,0.133
23,AACGTCCG,0.371
24,GATCACTA,-0.011
25,AGTCCGCA,0.293

row,Sequence,PBM E-score
1,CGTCCGTC,0.234
2,GTGGAGAA,-0.143
3,TACGCGTA,0.21
4,CCTTCGCA,-0.197
5,ACTACGAA,-0.276
6,GTTCCCTA,-0.0618
7,GCTACCTA,-0.0732
8,GTGATGCA,-0.103
9,AAACGGCC,0.283
10,CGGGTTGA,0.0475
11,CCTGGAAA,-0.122
12,ACGCAACA,-0.0464
13,GATCACCA,-0.0532
14,CTCAGCAC,-0.18
15,CACCAGCA,-0.272
16,ACATCCGT,0.213
17,ATGGCTGG,-0.197
18,CCGGGGTC,0.312
19,ATCAAGGC,-0.142
20,CCCTTTAG,-0.335
21,CTACTAGA,-0.137
22,AAGACGAA,-0.232
23,ATCTCTCC,-0.0103
24,TAATGCAA,-0.241
25,CAAATATG,-0.0929

row,Sequence,PBM E-score
1,CTAACCAG,-0.199
2,GCCAACGC,-0.082
3,GATCAATC,0.0308
4,AAACAGGA,-0.229
5,CCGTAGGA,-0.0521
6,CAGCGCTG,-0.0399
7,ACCGTTTC,0.0396
8,CTACCGTA,-0.0214
9,AAGTCTGT,-0.265
10,GACCGCCC,0.0879
11,CGGGTTGC,0.09
12,AAATAAAC,-0.023
13,ATACGAAG,-0.0294
14,CCGACAGC,0.229
15,CCGCAATC,0.342
16,AGAGTCTC,-0.185
17,CCTTAACA,-0.11
18,AGGGGATA,-0.167
19,ATTTAGTG,-0.0559
20,ATGATATA,-0.211
21,CTACTCCC,-0.105
22,AGGTGTAT,-0.094
23,ATAGCACA,-0.00774
24,ACGGTTAC,0.159
25,CGTAAACG,0.00754

row,Sequence,PBM E-score
1,CTTGGGAC,-0.133
2,ATACAAAT,0.148
3,TAATAGCA,-0.119
4,ACTGTTGG,-0.231
5,GCCCCCGA,0.2
6,ATTTCTTA,0.00138
7,AGACGAAT,-0.317
8,CGATGAAG,0.0796
9,AAGCATCG,0.133
10,ACCGATCT,0.274
11,ATCTTCCG,0.314
12,ATCGCCGC,0.286
13,GTCCGCGA,0.227
14,AAGGTGCC,0.0359
15,GGCCTCCA,-0.0227
16,GTTGATAA,-0.146
17,GAGAATGA,-0.137
18,ACGGCTTC,0.013
19,CTGCAGCC,-0.146
20,CGACCACG,0.0929
21,AAGCTGAA,0.0178
22,ATCGAGTG,0.0192
23,ACTTGCCG,-0.03
24,GGAGCACC,0.101
25,AGTATGGC,-0.0271

row,Sequence,PBM E-score
1,CTGACAAC,-0.222
2,ATCAGGAC,-0.166
3,AGGTTTCG,0.0492
4,GGACGGCA,0.162
5,CGGATCGC,0.147
6,GTGTGACA,-0.152
7,AATGCGCC,0.225
8,CCATTTTA,0.177
9,GGAAGGCA,-0.144
10,CGTGGCCA,-0.199
11,AACTTTCT,0.129
12,ATTTCTCC,0.223
13,ATAGTAGC,0.0136
14,ATAGACGA,-0.232
15,CCATGAAG,-0.132
16,GCGCACTA,0.0752
17,GCGCGCCC,0.146
18,AAGTGAAA,-0.0457
19,CTACAACA,-0.0881
20,ACTATTGC,0.0581
21,GAAACATA,0.00213
22,AGGATGTC,-0.0998
